Measured values taken from PubChem BioAssay AID493208 (National Center for Advancing Translational Sciences (NCATS), 2011).
The whole screen tested about 44,000 compounds, of which about 340 (0.77%) were called active. About 5% were inconclusive and are not listed. Calls come from the whole dose curve; as a rule, active = well fitted inhibition curve with a large enough effect; inconclusive = small, poorly fitted or top-dose-only effect; inactive = flat fitted curve, though single readings scatter. Some of the results follow.

Experiment: Acumen qHTS Assay for Inhibitors of the mTORC1 Signaling Pathway in MEF (Tsc2-/-, p53-/-) Cells: Sytravon;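 note: plate controls were DMSO for no effect and rapamycin for full effect; nearly all actives have a fitted effect of over 50% in size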
Conditions: phospho-rpS6 immunofluorescence/PI, 24 h; series mostly up to 38.3 µM; activity change, negative = inhibition: at the top concentration
In short: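 Immunofluorescence of rpS6 phosphorylation in Tsc2-/-, p53-/- MEFs after 24 h compound exposure, normalized to propidium iodide signal. Activity is expressed as % positive cells, thresholded with 7.5 nM rapamycin.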

Row | SMILES | activity change, negative = inhibition
1 | CN(C(=O)c1cc2c(Cl)nc3ccccc3c2s1)c1cccc(C(F)(F)F)c1 | inactive: 2.08%
2 | CCn1c(C(=O)Nc2c(C)cccc2C)cc2sc(Cl)cc21 | inactive: -3.65%
3 | O=C(Cn1nc(-c2ccccc2)c2c(c1=O)CCCC2)Nc1ccc(F)c(Cl)c1 | inactive: -5.21%
4 | Cc1ccccc1NS(=O)(=O)c1ccc2[nH]cc(C(=O)NC3CCCCC3)c(=O)c2c1 | inactive: -1.41%
5 | COc1cccc(-c2noc(COc3ccc(C(C)(C)C)cc3)n2)c1 | inactive: 3.04%
6 | Cc1ccc(NC(=O)c2oc3ccc(S(=O)(=O)N4CCCCCC4)cc3c2C)c(C)c1 | inactive: 0%
7 | CCn1c(=O)c2cc(C(=O)NC3CCC(C)CC3)sc2c2ccccc21 (stereo not given) | inactive: -9.91%
8 | COc1ccc(NC(=O)c2cc3c(=O)n(Cc4cccs4)ccc3nc2C)cc1 | inactive: -11.5%
9 | O=C(c1cc(-c2cccc(Cl)c2)on1)N1CCCCC1 | inactive: -10.7%
10 | Cc1ccc(NC(=O)c2c(NC(=O)c3ccc(F)cc3)sc3c2CCCC3)cc1C | inactive: 12.7%
11 | COc1ccc(-n2c(C)nnc2SCc2nc(-c3ccc(OC)c(OC)c3)no2)cc1 | inactive: 0.0842%
12 | COc1ccc(OC)c(NC(=O)Cn2c(=O)n(-c3cccc(C)c3)c(=O)c3c2c2cc(C)ccc2n3C)c1 | inactive: 5.26%
13 | CCOC(=O)c1c(C)oc2nc(C)nc(N3CCN(c4cc(Cl)ccc4C)CC3)c12 | inactive: 5.75%
14 | CCOC(=O)c1cc(OC(=O)c2cc(OC)c(OC)c(OC)c2)n(-c2ccccc2)n1 | inactive: 0.775%
15 | CCc1ccccc1N(C)C(=O)Cn1cnc2sc(C)c(S(=O)(=O)N3CCC(C)CC3)c2c1=O | inactive: 4.12%
16 | CCOc1ccc(-n2c(SCC(=O)Nc3cc(C)on3)nc3c([nH]c4ccccc43)c2=O)cc1 | inactive: -1.41%
17 | COc1cccc(CNC(=O)CCCn2nc(C)c3sc4ccccc4c3c2=O)c1 | inactive: 2.13%
18 | COc1ccc(C)cc1NC(=O)Cn1c(=O)oc2cc(S(=O)(=O)N3CCCCC3)ccc21 | inactive: -4.39%
19 | Cc1ccc(Nc2ccc3cc(S(=O)(=O)N4CCCCC4)ccc3n2)cc1F | inactive: -3.99%
20 | CCn1cc2nc(SCC(=O)Nc3ccc(OC)c(Cl)c3)n(Cc3ccc(OC)cc3)c(=O)c2n1 | inactive: -6.68%
21 | CCOC(=O)c1ccc(NC(=O)CSc2nc(-c3ccc(OC)cc3)cc(C(F)(F)F)c2C#N)cc1 | inactive: -8.21%
22 | O=C(Cc1ccccc1)N(Cc1cccnc1)c1nc2c(Cl)cccc2s1 | inactive: -3.67%
23 | COc1ccc(N(CC(=O)N2CCN(c3ccccc3)CC2)S(=O)(=O)c2c(C)nn(C)c2C)cc1 | inactive: -6.34%
24 | COc1ccc(-c2cc3nc(C)c(CCC(=O)NCc4ccccc4Cl)c(C)n3n2)c(OC)c1 | inactive: 0.28%

Row | SMILES | activity change, negative = inhibition
25 | O=C(CCC1CCCC1)N1CCc2c([nH]c3ccccc23)C1c1ccc(F)cc1 (stereo not given) | inactive: -7.42%
26 | CC(=O)c1ccc(NC(=O)c2cn(-c3ccccc3)nc2-c2ccc(Br)cc2)cc1 | inactive: -7.6%
27 | CCc1nnc(SC(CC)C(=O)Nc2ccc(OC)c(Cl)c2)c2cc3occc3n12 (stereo not given) | inactive: -12.9%
28 | N#Cc1nc(COc2ccccc2Cl)oc1NCCc1ccccc1 | inactive: -9.07%
29 | CCc1cccc(C)c1NC(=O)C1CCN(S(=O)(=O)c2c(C)noc2/C=C/c2c(C)cc(C)cc2C)CC1 | inactive: 0.158%
30 | COc1ccccc1Nc1nc(-c2ccc(F)cc2)c2c(n1)-c1ccccc1OC2 | inactive: -7.88%
31 | Cc1ccc(CCNC(=O)CN(c2cc(C)cc(C)c2)S(=O)(=O)c2c(C)noc2C)cc1 | inactive: 2.45%
32 | COc1ccccc1NC(=O)c1c(C)cc(C)nc1SCC(=O)Nc1ccc(C)c(C)c1 | inactive: -16.6%
33 | COc1cccc(-n2ccn(CC(=O)NCc3ccc(C)cc3)c(=O)c2=O)c1 | inactive: 7.31%
34 | Cc1ccc(NC(=O)Nc2cccc(C)n2)cc1 | inactive: 2.13%
35 | Cc1cc(C)c(NS(=O)(=O)c2ccc3c(c2)CC(C)N3C(=O)C2CCC2)c(C)c1 (stereo not given) | inactive: -6.43%
36 | CCOc1ccc(C2CC(=O)NC(NC(=O)c3cccc(Cl)c3)=N2)cc1 (stereo not given) | inactive: -5.42%
37 | O=C(Nc1ccc2nc(SCCOc3ccccc3)sc2c1)c1ccccc1F | inactive: -11.6%
38 | Cc1ccc(CSC2=Nc3ccccc3C3=NC(CC(=O)NCc4cccs4)C(=O)N23)c(C)c1 (stereo not given) | inactive: 1.19%
39 | CCCCNS(=O)(=O)c1ccc(N2CCCCS2(=O)=O)cc1 | inactive: -0.0544%
40 | COc1ccc(-c2cn3c(n2)sc2cc(C(=O)Nc4cccc(SC)c4)ccc23)cc1 | inactive: 5.2%
41 | CCc1ccc(N(CC)C(=O)CCn2cnc3onc(-c4ccc(F)cc4)c3c2=O)cc1 | inactive: -2.38%
42 | CCOC(=O)c1c(C)c(-c2ccccc2)n(CC(=O)Nc2ccc(OCC)cc2)c1C | inactive: -7.42%
43 | Cc1ccc(Cl)cc1N1CCN(C(=O)C2CCN(S(=O)(=O)Cc3ccccc3)CC2)CC1 | inactive: -0.069%
44 | COc1ccccc1-c1noc(-c2ccc(N3CCN(C)CC3)c([N+](=O)[O-])c2)n1 | inactive: -0.178%
45 | Cc1ccc(-c2ccc(=O)n(CC(=O)NCCc3ccc(Cl)cc3)n2)cc1 | inactive: 12.3%
46 | COC(=O)C(CCSC)NC(=O)Cn1ncc2c([nH]c3ccccc32)c1=O (stereo not given) | inactive: -1.16%
47 | COc1ccc(NC(=O)c2c(NCc3cccs3)sc3c2CCCC3)c(OC)c1 | inactive: -13.4%
48 | CCCOc1ccc(CNC(=O)c2ccc3c(c2)N(Cc2ccccc2)CCS3)cc1 | inactive: -5.68%

Row | SMILES | activity change, negative = inhibition
49 | COc1cccc2c1cc1c(=O)n(CC(=O)N3CCN(c4cccc(Cl)c4)CC3)nc(C)n12 | inactive: -0.289%
50 | O=C(OCc1cc(=O)n2nc(-c3cccs3)sc2n1)c1ccccc1 | inactive: 3.52%
51 | CC(=O)n1nc(-c2cccnc2)nc1NCc1ccc(F)cc1 | inactive: 7.02%
52 | O=C1c2oc3ccccc3c(=O)c2C(c2ccc(O)cc2)N1Cc1ccc2c(c1)OCO2 (stereo not given) | inactive: 3.24%
53 | O=C(c1ccc(Cl)cc1)N1CCC(c2nc3ccccc3o2)CC1 | inactive: 0.907%
54 | CCOc1ccc(NC(=O)c2c(NCc3ccc(C)o3)sc3c2CCCCC3)cc1 | inactive: -27.4%
55 | Cc1ccc(CNC(=O)CN2C(=O)CSc3ccc(S(=O)(=O)N(C)C)cc32)cc1 | inactive: 4.52%
56 | CC(C)CN(CCCNC(=O)c1cc(-c2cccs2)nc2ccccc12)CC(C)C | inactive: 1.78%
57 | CCN1CCN(CCCNC(=O)c2cnn(-c3ccccc3Cl)c2C2CCN(C(=O)OC(C)(C)C)CC2)CC1 | inactive: -9.62%
58 | CCOC(=O)C1CCCN(c2c(C(=O)c3ccc(OCC)cc3)cnc3ccccc23)C1 (stereo not given) | inactive: 0.446%
59 | Cc1cc(F)ccc1NC(=O)C1CCN(C(=O)c2cnn(-c3ccccc3)c2-n2cccc2)CC1 | inactive: -1.07%
60 | COC(=O)c1ccccc1NC(=O)c1ccc(-c2nc(COc3ccccc3)c(C)o2)cc1 | inactive: -1.53%
61 | CCCCc1nn2c(=O)cc(COC(=O)c3cccc(Cl)c3)nc2s1 | inactive: -12.3%
62 | O=C(c1ccccc1)c1cn(Cc2ccc(F)cc2)c2ccccc2c1=O | inactive: -8.67%
63 | Cc1cccc(C)c1NC(=O)Cn1nnc(C(=O)Nc2c(C)cccc2C)c1N | inactive: -7.75%
64 | O=C(CCC1N=C2c3ccccc3N=C(SCc3cccc(F)c3)N2C1=O)NCCc1ccccc1 (stereo not given) | inactive: 0.17%
65 | Cc1ccc(CNC(=O)CN2C(=O)CSc3c2c(C)nn3-c2ccccc2)cc1 | inactive: 2.95%
66 | COc1ccc(C)cc1NC(=O)CCNC(=O)Cn1ccc2ccccc2c1=O | inactive: -1.68%
67 | COc1ccc(NC(=O)c2oc3ccccc3c2NC(=O)Cc2coc3cc(C)ccc23)cc1 | inactive: 0.662%
68 | CCOC(=O)c1c(C)[nH]c(CCC(=O)NCc2cccc(C)c2)c1C | inactive: -0.402%
69 | COCCCn1c(=N)c(C(=O)NCc2cccnc2)cc2c(=O)n3cccc(C)c3nc21 | inactive: -21.8%
70 | COc1ccc(-n2ncc(C(=O)Nc3ccc4c(c3)OCO4)c2C2CCN(C(=O)OC(C)(C)C)CC2)cc1 | inactive: -2.6%
71 | Cc1ccc(NC(=O)Cn2cc(S(=O)(=O)Cc3cccc(Cl)c3)c3ccccc32)cc1C | inactive: -19.3%
72 | COc1ccc(C2=C(C)C(=NCCCN3CCN(c4cc(Cl)ccc4C)CC3)NS2(=O)=O)cc1 | inactive: 2.13%

Row | SMILES | activity change, negative = inhibition
73 | O=C(NCc1ccccc1Br)c1ccc2c(c1)nc1n2CCOC1 | inactive: 0.835%
74 | Cn1c(-c2ccccc2)cnc1NCc1ccccc1O | inactive: -16.9%
75 | CCCNC(=O)COCc1cc(-c2ccc(F)cc2)on1 | inactive: 0.601%
76 | O=C(CCC1N=C2c3ccccc3N=C(SCc3ccccc3F)N2C1=O)NCc1ccccc1 (stereo not given) | inactive: 0.866%
77 | Cc1ccc2nc(N3CCN(c4ccccc4F)CC3)c3nnnn3c2c1 | inactive: -9.17%
78 | COc1ccc(CC(=O)NCc2ccc3c(c2)CCN3C(=O)c2cccc(C)c2)cc1 | inactive: -12.7%
79 | Cc1ccc(-n2cnc3cc(C(=O)NCc4ccccc4Cl)ccc32)c(C)c1 | inactive: 0%
80 | CCCOc1cccc(C2c3c(oc4ccc(F)cc4c3=O)C(=O)N2Cc2ccc3c(c2)OCO3)c1 (stereo not given) | inactive: 0.483%
81 | Cc1nc(-n2nc(C)c(Cc3ccc4c(c3)OCO4)c2C)sc1C(=O)Nc1ccc(Cl)cc1 | inactive: -2.1%
82 | Cc1cccc(Cn2cccc2CNS(=O)(=O)c2ccc(C)c(C)c2)c1 | inactive: 9.04%
83 | CN1CCSc2ccc(C(=O)NCc3ccccc3)cc21 | inactive: -5.21%
84 | CCCCN(Cc1ccco1)C(=O)Cn1ncc2c([nH]c3ccccc32)c1=O | inactive: -0.599%
85 | O=C(c1ccco1)n1nc(-c2ccc(Cl)cc2)nc1NCc1ccc(F)cc1 | inactive: 0.735%
86 | COc1ccc(C2C(C(=O)Nc3ccccc3)=C(C)Nc3nc(-c4ccccc4Cl)nn32)cc1OC (stereo not given) | inactive: -1.82%
87 | CCOCCCNc1nc2cc(OC)c(OC)cc2c2nc(-c3ccccc3)nn12 | inactive: 0.363%
88 | Cc1ccc(NC(=O)Cn2c(=O)n(CCC(=O)NCc3ccccc3Cl)c(=O)c3ccccc32)c(C)c1 | inactive: -3.68%
89 | Cc1cccc(NS(=O)(=O)c2ccc3nc(-c4ccccc4)[nH]c3c2)c1C | inactive: 1.16%
90 | CCOC(=O)c1scc(-c2ccc(C)cc2)c1S(=O)(=O)Nc1ccc(OC)c(Cl)c1 | inactive: -8.51%
91 | O=C(Nc1ccc2nc(SCCOc3ccccc3)sc2c1)c1ccc2c(c1)OCO2 | inactive: -2.47%
92 | Clc1ccccc1Nc1ncnc2c1nc1n2CCCCC1 | inactive: -11.8%
93 | COc1cc2[nH]c(=O)n(CCCCCC(=O)N3CCN(c4ccc(Cl)cc4)CC3)c(=O)c2cc1OC | inactive: -7.86%
94 | Cc1cccc(Cn2c(=O)n(CC3CCC(C(=O)N4CCC(C)CC4)CC3)c(=O)c3sccc32)c1 (stereo not given) | inactive: -2.97%
95 | O=C(CSc1cn(CC(=O)N2CCCC2)c2ccccc12)Nc1ccccc1C(F)(F)F | inactive: -3.61%
